# Where “and” joins values, the source holds several entries; their conditions need not be identical. Identical values can stand only once. Hit rate of the full screen: of about 360,000 compounds, about 25,000 (6.9%) were called active. The inconclusive results got no clear call from the source; some entries with a clear call stand among them for comparison. The call rests on the fitted dose curve; in most records, active means well fitted inhibition curve with a large enough effect; inconclusive means small, poorly fitted or top-dose-only effect; inactive means flat fitted curve, though single readings scatter. Potencies of inconclusive entries are doubtful fits and often do not repeat.
# Molecular target: Luciferin 4-monooxygenase (Photinus pyralis) (UniProt P08659)
# Experiment: qHTS profiling assay for firefly luciferase inhibitor/activator using purifed enzyme and Km concentrations of substrates (counterscreen for miR-21 project); further: nearly all actives have a fitted effect of over 55% in size
# Conditions: purified FLuc, luminescence inhibition; series mostly up to 57.5 µM
# How it was run: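 Purified P. pyralis luciferase, 10 nM final, with Km-level 10 uM D-luciferin and 10 uM ATP in 50 mM Tris acetate pH 7.5, 10 mM Mg acetate, 0.01% Tween-20, 0.05% BSA; 6-point qHTS titration about 60 µM downward; luminescence read.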
# Potency means the concentration at half of the fitted maximal effect; tags describe the fitted curve by direction and shape.
# Chain of UniProt P08659 (P08659 whole entry, looked up): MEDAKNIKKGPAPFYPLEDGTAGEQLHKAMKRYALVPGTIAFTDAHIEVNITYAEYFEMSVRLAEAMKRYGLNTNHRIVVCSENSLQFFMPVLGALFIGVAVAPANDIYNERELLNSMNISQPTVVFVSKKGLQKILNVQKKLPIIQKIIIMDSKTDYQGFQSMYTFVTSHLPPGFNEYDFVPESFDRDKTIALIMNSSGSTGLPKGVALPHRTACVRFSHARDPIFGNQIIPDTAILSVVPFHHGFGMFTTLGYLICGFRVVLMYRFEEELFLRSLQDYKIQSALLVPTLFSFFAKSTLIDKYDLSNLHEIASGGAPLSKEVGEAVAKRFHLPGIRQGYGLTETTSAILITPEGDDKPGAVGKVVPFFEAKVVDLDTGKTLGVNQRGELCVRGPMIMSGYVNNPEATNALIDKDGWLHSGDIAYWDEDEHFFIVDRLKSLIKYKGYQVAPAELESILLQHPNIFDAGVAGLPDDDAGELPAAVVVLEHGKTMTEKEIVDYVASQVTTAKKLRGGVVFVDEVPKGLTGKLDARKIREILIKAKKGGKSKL
row,SMILES,Potency
1,CC(=O)NNc1nc(-c2ccc(C)cc2)cs1,"inconclusive: 37.9 µM [inhibitor, single point]"
2,CCCN(CCC)Cc1c(C(=O)N/N=C/c2ccco2)nnn1-c1nonc1N,inactive
3,CC(C)COc1ccc(C(=O)N/N=C/c2ccoc2)cc1,"inconclusive: 13.5 µM [inhibitor, partial curve]"
4,COc1ccc(Cc2nnc(NC(=O)c3cccs3)s2)cc1,"inconclusive: 8.49 µM [inhibitor, partial curve]"
5,CN(C)c1ccc(C(C(=O)NC2CCCC2)N(C(=O)c2ccco2)C2CC2)cc1 (configuration not stated),inactive
6,O=S(=O)(CCc1nc2ccccc2s1)c1ccc2ccccc2c1,"inconclusive: 19 µM [inhibitor, partial curve, poor fit]"
7,Cc1ccc(-n2cc(-c3ccccc3)nc2S(=O)(=O)CC(=O)Nc2ccc(F)cc2)cc1,"inconclusive: 26.9 µM [inhibitor, single point]"
8,COc1ccc(-n2nc(C(=O)Nc3ccc(C)cn3)c3c4ccccc4n(C)c3c2=O)cc1,inactive
9,CCN1CCN(C(=S)Nc2sc(C)c(-c3ccccc3)c2C(=O)OC)CC1,inactive
10,COC(=O)c1ccc(-n2c(CCC(=O)O)ccc2-c2ccc(C)cc2)cc1,"inconclusive: 12 µM [inhibitor, partial curve]"
11,Cc1c(Cl)cccc1NC(=O)c1noc2c1CCCC2,"inconclusive: 23.9 µM [inhibitor, single point]"
12,N#CCC(=O)Nc1ccc(C(=O)OCC(=O)Nc2ccc3ccccc3c2)cc1,inactive
13,CCc1ccc(NC(=O)c2ccccc2SC)cc1,active: 15.1 µM
14,COC(=O)c1c(NC(=O)c2cccs2)sc2c1CCCC2,"inconclusive: 19 µM [inhibitor, partial curve]"
15,CC(C)COC(=O)NCCCOC(=O)Nc1ccccc1,"inconclusive: 23.9 µM [inhibitor, partial curve, poor fit]"
16,O=C(c1ccc(Cl)cc1)N1CCn2c1nc1ccccc12,"inconclusive: 26.9 µM [inhibitor, partial curve, poor fit]"
17,O=C(CSc1nncc2ccccc12)Nc1ccc(C(=O)O)cc1,inactive
18,O=C(O)CCC(=O)N1CCc2cc(S(=O)(=O)NCc3ccc(Cl)cc3)ccc21,inactive
19,O=C(CCCn1c(=O)c2cccn2c2ccc(F)cc21)NCc1ccc(Cl)cc1,inactive
20,NS(=O)(=O)c1ccc(C(=O)Nc2ccc(-c3nc4cccnc4s3)cc2)cc1,active: 12 µM
21,Cc1cc(NC(NC(=O)c2ccco2)(C(F)(F)F)C(F)(F)F)no1,inactive
22,CC(C)C[C@H]1CNC(=O)C(=O)N1C[C@H](C)NC(=O)Cc1ccccc1,inactive
23,CCOC(=O)C(O)C1CCc2c([nH]c3ccc(C)cc23)C1=O (configuration not stated),"inconclusive: 23.9 µM [inhibitor, partial curve]"
24,CN(C)c1ccc(/C=C(/NC(=O)c2ccccc2)C(=O)N/N=C/c2ccc([N+](=O)[O-])c(O)c2)cc1,"inconclusive: 26.9 µM [inhibitor, partial curve, poor fit]"

row,SMILES,Potency
1,O=C(N/N=C/c1cn(-c2ccccc2)nc1-c1cccnc1)c1ccccc1,"inconclusive: 30.1 µM [inhibitor, single point]"
2,CN(c1ccc(C(=O)Nc2ccc3c(c2)OCO3)cc1)S(C)(=O)=O,active: 12 µM
3,Cc1ccc(-n2nc(CO)c(C(=O)NC(C)CCCc3ccccc3)n2)cc1C (configuration not stated),"inconclusive: 9.53 µM [inhibitor, partial curve]"
4,CN(CC(=O)Nc1ccc(N2CCOCC2)cc1)C(=O)CSc1ccc(Br)cc1,"inconclusive: 21.3 µM [inhibitor, partial curve]"
5,COCCNc1nnc(SCC(=O)c2c[nH]c3ccccc23)s1,inactive
6,Cc1cc(Nc2ccc(C(C)C)cc2)n2ncnc2n1,"inconclusive: 21.3 µM [inhibitor, single point]"
7,Cc1ccc(OCC(=O)c2cc(C)n(-c3ccccc3)c2C)c([N+](=O)[O-])n1,active: 19 µM
8,COc1ccc2cc(OCC(=O)NNC(=O)Nc3ccc(C(C)=O)cc3)ccc2c1,inactive
9,Cc1ccc(O)c(NC(=O)c2ccc(Br)c(S(=O)(=O)N3CCCCC3)c2)c1,"inconclusive: 26.9 µM [inhibitor, partial curve]"
10,O=C(COC(=O)c1cccnc1Nc1ccccc1F)NCCN1C(=O)CSC1=O,"inconclusive: 4.78 µM [inhibitor, partial curve, poor fit]"
11,COC(=O)c1scc(C)c1NC(=O)/C=C/C(=O)O,"inconclusive: 26.9 µM [inhibitor, partial curve, poor fit]"
12,CCc1ccc(C(=O)NN=C2CCCCCC2)s1,"inconclusive: 37.9 µM [inhibitor, partial curve, poor fit]"
13,CC(C)c1nc2scc(-c3ccc(Cl)cc3)c2c(=O)n1N,"inconclusive: 21.3 µM [inhibitor, single point]"
14,Cc1ccc(/C=C/C(=O)Nn2cnnc2)cc1,active: 5.36 µM
15,CCOc1ccc2nc(SC3CC(=O)N(c4ccc(OC)cc4)C3=O)sc2c1 (configuration not stated),"inconclusive: 13.5 µM [inhibitor, partial curve]"
16,Cc1ccc(-c2cn3nc(C)c(C)nc3n2)cc1,active: 0.675 µM
17,Cc1nc2nc(SCC(=O)O)nn2c(C)c1Cc1c(F)cccc1Cl,"inconclusive: 26.9 µM [inhibitor, partial curve, poor fit] and inconclusive: 15.1 µM [inhibitor, partial curve]"
18,O=C(CCN1C(=O)S/C(=C\c2ccc(F)cc2)C1=O)Nc1ccc(O)cc1C(=O)O,"inconclusive: 30.1 µM [inhibitor, partial curve, poor fit]"
19,Cc1ccc2nc(N3CCN(Cc4ccc(F)cc4)C3=O)c(C)cc2c1,"inconclusive: 37.9 µM [inhibitor, single point]"
20,COc1ccc(-c2noc(CCC(=O)Nc3ccc4c(c3)OCCO4)n2)cc1,active: 16.9 µM
21,CCOc1ccc(C2=NC(c3ccc(OC)cc3)=Nc3ccc(Cl)cc3N2)cc1,"inconclusive: 21.3 µM [inhibitor, partial curve, poor fit]"
22,CC1C/C(=C/c2ccco2)C(=O)/C(=C/c2ccco2)C1 (configuration not stated),"inconclusive: 26.9 µM [inhibitor, single point]"
23,O=C(NCc1ccccc1)C1COc2ccccc2O1 (configuration not stated),"inconclusive: 37.9 µM [inhibitor, partial curve, poor fit]"
24,COc1ccc(NC(=O)/C(C#N)=C/c2cc(C)n(-c3ccc(F)cc3)c2C)cc1,"inconclusive: 26.9 µM [inhibitor, partial curve, poor fit]"

row,SMILES,Potency
1,O=C(CSc1nnc(Cc2cccs2)n1CCc1ccccc1)N1CCCc2ccccc21,inactive
2,CCc1ccc(NC(=O)C(C)n2nnc3sc(-c4ccccc4)cc3c2=O)cc1 (configuration not stated),inactive
3,COc1ccc(Cn2c(=O)sc3ccccc32)cc1,inactive
4,Fc1ccc(OCCn2cnc(Cl)c2Cl)cc1,inactive
5,COc1ccccc1/C=C/C1=NC(=C\C=C/c2ccccc2)/C(=O)O1,"inconclusive: 30.1 µM [inhibitor, single point]"
6,N/C(=N\N=C\c1cccc([N+](=O)[O-])c1)c1nonc1N,"inconclusive: 9.53 µM [inhibitor, partial curve, poor fit]"
7,CCOc1cc(/C=C2\COc3ccccc3C2=O)cc(Br)c1OCC(=O)N(C)C,"inconclusive: 37.9 µM [inhibitor, partial curve, poor fit]"
8,Cc1c(CNCCC2=CCCCC2)c(C(=O)O)c(C)n1Cc1ccccc1,inactive
9,CCOc1ccc(OCCC(=O)OCC(=O)Nc2cc(C)nn2-c2ccccc2)cc1,"inconclusive: 26.9 µM [inhibitor, single point]"
10,Cc1cc(Br)ccc1S(=O)(=O)n1ccnc1C,"inconclusive: 10.7 µM [inhibitor, partial curve, poor fit]"
11,O=C(Nc1ccc(N2CCOCC2)c(S(=O)(=O)Nc2cc(Cl)ccc2Cl)c1)c1cccnc1,inactive
12,Cc1nc(Nc2ccc(Cl)cc2)cc(-c2ccccc2)n1,"inconclusive: 37.9 µM [inhibitor, single point]"
13,N#Cc1c(CSCC(=O)O)cc(=O)n2c1[nH]c1ccccc12,"inconclusive: 23.9 µM [inhibitor, partial curve, poor fit]"
14,O=c1c2ccc(Cl)cc2[nH]c(=S)n1CCC1=CCCCC1,inactive
15,CCCCOc1cccc(C(=O)Nc2ccc(NC(=O)c3ccco3)cc2)c1,inactive
16,Cc1c(C(=O)N2CCCC2)oc2ccc(Br)cc12,"inconclusive: 26.9 µM [inhibitor, single point]"
17,O=C(Nc1cccc(F)c1)Nc1ccc2c(c1)CCC2,active: 3.38 µM
18,COc1ccccc1COC(=O)N/C=C/c1ccco1,active: 15.1 µM
19,Cc1ccn2c(Nc3ccc4c(c3)OCO4)c(-c3ccc(N(C)C)cc3)nc2c1,"inconclusive: 12 µM [inhibitor, partial curve]"
20,O=C(NCC1CCCO1)c1cc2c(s1)CCC2 (configuration not stated),"inconclusive: 37.9 µM [inhibitor, single point]"
21,Cc1cc(NC(=O)Nc2ccc(Cl)cc2)n(-c2ccccc2)n1,"inconclusive: 37.9 µM [inhibitor, partial curve, poor fit]"
22,COc1ccc(/C=C2\SC(=S)N(Cc3cccnc3)C2=O)cc1C,active: 5.36 µM
23,CCOC(=O)Cc1csc(NC(=O)Nc2cccc(Cl)c2)n1,active: 5.36 µM
24,CCN1CCN(c2oc(-c3ccc(COc4ccc(C)cc4)o3)nc2C#N)CC1,inactive

# From PubChem BioAssay AID588342 (National Center for Advancing Translational Sciences (NCATS), 2011)
